Measured values published in the supplement of paper PMC4967469.
pIC50: −log10 of the molar value. By IC50 is meant the dose at which the fit gives 50% viability; fits outside the tested doses are given as limits. The AUC spans the tested range (256-fold, ending at the top dose) of the same fit: 1 means no effect, lower means more sensitive. A top dose marked as inferred was derived from the fitted curves, not read from the paper. For some assays here: An entry number marks a drug with two screens in the source, which often give different values.

compound: COc1cc(N2CCN(C)CC2)ccc1Nc1ncc2c(n1)N(C)c1ccccc1C(=O)N2C [XMD8-85]; assay: Viability of human cancer cell lines after 72 h of drug (GDSC screen); settings: top dose 8 µM; top dose inferred
Method: (§1)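 Human cancer cell lines in 384-well plates, medium with 10% serum, drug for 72 h over a 256-fold dose range (nine 2-fold or five 4-fold steps up to the top dose). Adherent lines were fixed and stained with the nucleic acid dye Syto60, suspension lines read with resazurin; signal relative to control wells, capped at 0 and 100%. One two-parameter sigmoid per drug and line, fitted in a mixed model over all curves with the slope shared within a line.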

Cell Line	AUC	pIC50
BB49-HNC (head and neck, adherent)	0.844	< 5.10
BC-1 (B-cell lymphoma, suspension)	0.92	< 5.10
BE2-M17 (neuroblastoma, adherent)	0.946	< 5.10
BV-173 (chronic myeloid leukaemia, suspension)	0.887	5.15
CA46 (Burkitt lymphoma, suspension)	0.917	< 5.10
CCRF-CEM (lymphoblastic leukaemia, suspension)	0.931	< 5.10
CESS (acute myeloid leukaemia, suspension)	0.877	5.21
CHP-126 (neuroblastoma, suspension)	0.927	< 5.10
CMK (acute myeloid leukaemia, suspension)	0.836	5.38
COLO-320-HSR (large intestine, suspension)	0.951	< 5.10
COLO-824 (breast, adherent)	0.982	< 5.10
COR-L88 (small cell lung carcinoma, adherent)	0.984	< 5.10
CP66-MEL (melanoma, adherent)	0.93	< 5.10
GA-10 (Burkitt lymphoma, suspension)	0.702	5.78
HCC1187 (breast, suspension)	0.83	5.33
IM-9 (myeloma, suspension)	0.992	< 5.10
KARPAS-231 (B-cell leukaemia, suspension)	0.803	5.53
SK-ES-1 (Ewing sarcoma, semi-adherent)	0.903	< 5.10
U-87-MG (glioma, adherent)	0.85	5.11

compound: Cc1cc(N2CCOCC2)cc2[nH]c(-c3c(NC[C@@H](O)c4cccc(Cl)c4)cc[nH]c3=O)nc12 [BMS-536924]; assay: as above; settings: top dose 4 µM; screen: GDSC drug entry 1091; top dose inferred
Method: as §1

Cell Line	AUC	pIC50
A3-KAW (B-cell lymphoma, suspension)	0.892	5.52
A4-Fuk (B-cell lymphoma, suspension)	0.879	< 5.40
ARH-77 (myeloma, suspension)	0.935	< 5.40
BB49-HNC (head and neck, adherent)	0.686	5.98
BC-1 (B-cell lymphoma, suspension)	0.945	< 5.40
BE2-M17 (neuroblastoma, adherent)	0.686	6.07
BV-173 (chronic myeloid leukaemia, suspension)	0.916	< 5.40
CA46 (Burkitt lymphoma, suspension)	0.892	< 5.40
CCRF-CEM (lymphoblastic leukaemia, suspension)	0.972	< 5.40
CESS (acute myeloid leukaemia, suspension)	0.948	< 5.40
CHP-126 (neuroblastoma, suspension)	0.986	< 5.40
CMK (acute myeloid leukaemia, suspension)	0.989	< 5.40
COLO-320-HSR (large intestine, suspension)	0.852	5.60
COLO-824 (breast, adherent)	0.889	< 5.40
COR-L88 (small cell lung carcinoma, adherent)	0.983	< 5.40
CP66-MEL (melanoma, adherent)	0.898	< 5.40
GA-10 (Burkitt lymphoma, suspension)	0.963	< 5.40
HCC1187 (breast, suspension)	0.928	< 5.40
IM-9 (myeloma, suspension)	0.991	< 5.40
KARPAS-231 (B-cell leukaemia, suspension)	0.977	< 5.40
SK-ES-1 (Ewing sarcoma, semi-adherent)	0.791	5.71
U-87-MG (glioma, adherent)	0.893	< 5.40

same assay, conditions: top dose 5.12 µM; screen: GDSC drug entry 62

Cell Line	AUC	pIC50
A3-KAW (B-cell lymphoma, suspension)	0.804	5.71
A4-Fuk (B-cell lymphoma, suspension)	0.298	7.08
ARH-77 (myeloma, suspension)	0.824	5.54
BB30-HNC (head and neck, adherent)	0.693	5.96
BB49-HNC (head and neck, adherent)	0.906	< 5.29
BC-1 (B-cell lymphoma, suspension)	0.95	< 5.29
BE2-M17 (neuroblastoma, adherent)	0.852	5.38
BV-173 (chronic myeloid leukaemia, suspension)	0.891	5.32
CA46 (Burkitt lymphoma, suspension)	0.909	< 5.29
CCRF-CEM (lymphoblastic leukaemia, suspension)	0.981	< 5.29
CESS (acute myeloid leukaemia, suspension)	0.955	< 5.29
CHP-126 (neuroblastoma, suspension)	0.871	5.30
CMK (acute myeloid leukaemia, suspension)	0.663	6.08
COLO-320-HSR (large intestine, suspension)	0.548	6.37
COLO-824 (breast, adherent)	0.987	< 5.29
COR-L88 (small cell lung carcinoma, adherent)	0.968	< 5.29
CP66-MEL (melanoma, adherent)	0.933	< 5.29
GA-10 (Burkitt lymphoma, suspension)	0.741	5.87
HCC1187 (breast, suspension)	0.951	< 5.29
IM-9 (myeloma, suspension)	0.991	< 5.29
KARPAS-231 (B-cell leukaemia, suspension)	0.849	5.59
SK-ES-1 (Ewing sarcoma, semi-adherent)	0.522	6.43
U-87-MG (glioma, adherent)	0.979	< 5.29

compound: CC(C)=CC[C@@H](O)C1=CC(=O)c2c(O)ccc(O)c2C1=O [Shikonin]; assay: as above; settings: top dose 16 µM; top dose inferred
Method: as §1

Cell Line	AUC	pIC50
A3-KAW (B-cell lymphoma, suspension)	0.611	5.72
A4-Fuk (B-cell lymphoma, suspension)	0.283	6.63
ARH-77 (myeloma, suspension)	0.474	6.07
BB30-HNC (head and neck, adherent)	0.224	6.80
BB49-HNC (head and neck, adherent)	0.87	< 4.80
BC-1 (B-cell lymphoma, suspension)	0.63	5.67
BE2-M17 (neuroblastoma, adherent)	0.618	5.67
BV-173 (chronic myeloid leukaemia, suspension)	0.377	6.32
CA46 (Burkitt lymphoma, suspension)	0.254	6.73
CCRF-CEM (lymphoblastic leukaemia, suspension)	0.45	6.13
CESS (acute myeloid leukaemia, suspension)	0.489	6.03
CHP-126 (neuroblastoma, suspension)	0.473	6.07
CMK (acute myeloid leukaemia, suspension)	0.371	6.33
COLO-320-HSR (large intestine, suspension)	0.553	5.86
COLO-824 (breast, adherent)	0.412	6.24
COR-L88 (small cell lung carcinoma, adherent)	0.749	5.22
CP66-MEL (melanoma, adherent)	0.551	5.85
GA-10 (Burkitt lymphoma, suspension)	0.099	7.18
HCC1187 (breast, suspension)	0.526	5.93
IM-9 (myeloma, suspension)	0.615	5.70
KARPAS-231 (B-cell leukaemia, suspension)	0.28	6.55
SK-ES-1 (Ewing sarcoma, semi-adherent)	0.506	5.98
U-87-MG (glioma, adherent)	0.542	5.88

compound: Cc1ccc(-n2nc(C(C)(C)C)cc2NC(=O)Nc2ccc(OCCN3CCOCC3)c3ccccc23)cc1 [BIRB 0796]; assay: as above; settings: top dose 10 µM; top dose inferred
Method: as §1

Cell Line	AUC	pIC50
A3-KAW (B-cell lymphoma, suspension)	0.993	< 5.00
A4-Fuk (B-cell lymphoma, suspension)	0.929	< 5.00
ARH-77 (myeloma, suspension)	0.988	< 5.00
BB30-HNC (head and neck, adherent)	0.984	< 5.00
BB49-HNC (head and neck, adherent)	0.975	< 5.00
BC-1 (B-cell lymphoma, suspension)	0.989	< 5.00
BE2-M17 (neuroblastoma, adherent)	0.987	< 5.00
BV-173 (chronic myeloid leukaemia, suspension)	0.966	< 5.00
CA46 (Burkitt lymphoma, suspension)	0.985	< 5.00
CCRF-CEM (lymphoblastic leukaemia, suspension)	0.984	< 5.00
CESS (acute myeloid leukaemia, suspension)	0.989	< 5.00
CHP-126 (neuroblastoma, suspension)	0.987	< 5.00
CMK (acute myeloid leukaemia, suspension)	0.99	< 5.00
COLO-320-HSR (large intestine, suspension)	0.992	< 5.00
COLO-824 (breast, adherent)	0.988	< 5.00
COR-L88 (small cell lung carcinoma, adherent)	0.986	< 5.00
CP66-MEL (melanoma, adherent)	0.967	< 5.00
GA-10 (Burkitt lymphoma, suspension)	0.975	< 5.00
HCC1187 (breast, suspension)	0.985	< 5.00
IM-9 (myeloma, suspension)	0.992	< 5.00
KARPAS-231 (B-cell leukaemia, suspension)	0.987	< 5.00
SK-ES-1 (Ewing sarcoma, semi-adherent)	0.978	< 5.00
U-87-MG (glioma, adherent)	0.985	< 5.00

compound: CCNc1cc(NC2CCC(O)CC2)nc(Nc2ccc3c(ccn3Cc3ccccc3)c2)n1 [CGP-082996 (CINK4)]; assay: as above; settings: top dose 5.12 µM; top dose inferred
Method: as §1

Cell Line	AUC	pIC50
A3-KAW (B-cell lymphoma, suspension)	0.768	5.81
A4-Fuk (B-cell lymphoma, suspension)	0.917	< 5.29
ARH-77 (myeloma, suspension)	0.924	< 5.29
BB30-HNC (head and neck, adherent)	0.868	5.35
BB49-HNC (head and neck, adherent)	0.879	< 5.29
BC-1 (B-cell lymphoma, suspension)	0.951	< 5.29
BE2-M17 (neuroblastoma, adherent)	0.955	< 5.29
BV-173 (chronic myeloid leukaemia, suspension)	0.869	5.42
CA46 (Burkitt lymphoma, suspension)	0.915	< 5.29
CCRF-CEM (lymphoblastic leukaemia, suspension)	0.978	< 5.29
CESS (acute myeloid leukaemia, suspension)	0.98	< 5.29
CHP-126 (neuroblastoma, suspension)	0.986	< 5.29
CMK (acute myeloid leukaemia, suspension)	0.884	5.39
COLO-320-HSR (large intestine, suspension)	0.988	< 5.29
COLO-824 (breast, adherent)	0.955	< 5.29
COR-L88 (small cell lung carcinoma, adherent)	0.96	< 5.29
CP66-MEL (melanoma, adherent)	0.948	< 5.29
GA-10 (Burkitt lymphoma, suspension)	0.862	5.48
HCC1187 (breast, suspension)	0.981	< 5.29
IM-9 (myeloma, suspension)	0.942	< 5.29
KARPAS-231 (B-cell leukaemia, suspension)	0.943	< 5.29
SK-ES-1 (Ewing sarcoma, semi-adherent)	0.907	< 5.29
U-87-MG (glioma, adherent)	0.97	< 5.29
